Measurements: US20250320181A1 (priority 2021, published 2025)

The compounds below were run against Gelatinase E (GelE) (Enterococcus faecalis, UniProt Q833V7) (assay: biochemical).
Description: E. faecalis was cultured aerobically in Todd Hewitt Broth overnight at 37° C. Nucleic acid is precipitated with 0.9% protamine solution, followed by protein precipitation with ammonium sulfate. Resuspended protein pellet was further subjected to purification using FPLC (phenyl Sepharose column). Fractions with gelatinase activity as determined by casein agar assay were pooled and further concentrated.
Different concentrations of test compound were incubated with purified GelE and FRET-based peptide substrate (390 MMP FRET Substrate 1; AnaspecAS-27077) in assay buffer at room temperature for 30 minutes. The fluorescence signal was determined by a plate reader.
With CC(=O)c1ccc(NC(=O)CSC(N)=O)cc1 [Compound 1, S-(2-((4-acetylphenyl)amino)-2-oxoethyl) carbamothioate] the IC50 was 33.7 µM.
For COC(=O)c1ccc(NC(=O)CSC(N)=O)cc1 [Compound 2], the IC50 was 155 µM.
COc1ccc(NC(=O)CSC(N)=O)cc1 [Compound 3] gave an IC50 of 60.1 µM.
Compound CC(=O)SCC(=O)Nc1ccc(C(C)=O)cc1 [Compound 4] has an IC50 of 1.53 µM.
In the case of COC(=O)c1ccc(NC(=O)CSC(C)=O)cc1 [Compound 5], the IC50 is reported as 28.9 µM.
In the case of COc1ccc(NC(=O)CSC(C)=O)cc1 [Compound 6], the IC50 is reported as 4.16 µM.
In the case of CNC(=O)[C@H](Cc1ccccc1)NC(=O)c1ccc(NC(=O)CSC(N)=O)cc1 [Compound 7], the IC50 is reported as greater than 100 µM.
Compound CNC(=O)[C@H](C)NC(=O)c1ccc(NC(=O)CSC(N)=O)cc1 [Compound 8] has an IC50 greater than 100 µM.
NC(=O)SCC(=O)Nc1ccc(C(=O)CC(F)(F)F)cc1 [Compound 9] was tested, and the IC50 was greater than 160 µM.
CNC(=O)COc1ccc(NC(=O)CSC(N)=O)cc1 [Compound 10] showed an IC50 greater than 200 µM.
In the case of CNC(=O)C(C)Oc1ccc(NC(=O)CSC(N)=O)cc1 (stereo not shown) [Compound 11], the IC50 is reported as 45.4 µM.
Work on CC(=O)n1cc(NC(=O)CSC(N)=O)cn1 [Compound 12] yielded an IC50 greater than 100 µM.
In the case of CCC(=O)c1ccc(N2C(=N)SCC2=O)cc1 [Compound 16], the IC50 is reported as greater than 37.8 µM.
